Data: PubChem BioAssay AID1963576 (National Center for Advancing Translational Sciences (NCATS), 2024)
The campaign covered roughly 46,000 compounds. About 60 (0.1%) were called active. Inconclusive results (about 3%) are left out. Calls follow the shape of the dose curve; as a rule, active = well fitted inhibition curve with a large enough effect; inconclusive = small, poorly fitted or top-dose-only effect; inactive = no such curve, though single readings can be large or run the other way. Some of the results follow.

Test: Primary qHTS assay for Inhibitors of ovarian cancer metastasis using an organotypic tumor microenvironment (TME) model. Also: nearly all actives have a fitted effect of over 65% in size.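 As to activity change, negative = inhibition: plate controls were DMSO wells for no effect and tomatine positive control wells for full effect.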
Settings: SKOV3ip1-GFP adhesion/invasion on 3D omental model, fluorescence; series mostly up to 45.8 µM; activity change, negative = inhibition: at the top concentration
Procedure, shortened: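 qHTS, 4-pt dose (0.36-46 umol/L); SKOV3ip1-GFP, 1,200 cells/well, no FBS; primary omental fibroblast/mesothelial co-culture 48 h pre-grown; 2 h RT + 16 h 37 C; PBS wash, 4% PFA; GFP count 488/509 nm.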

Structure (SMILES) | outcome | activity change, negative = inhibition
COc1ccc(N2CC(NC(=O)COc3ccc4ccccc4c3)CC2=O)cc1OC (stereo unspecified) | inactive | –
Cc1c(CN2CCN(S(C)(=O)=O)CC2)sc2c(N3CCOCC3)nc(-c3cnc(N)nc3)nc12 | – | inactive: -1.85%
CCOC(=O)C1CCC(CN(Cc2cccc(Br)c2)S(=O)(=O)c2ccc(Cl)cc2)CC1 (stereo unspecified) | – | inactive: -9.58%
COc1ccc(NC(=O)Cn2cc(S(=O)(=O)Cc3ccc(F)cc3)c3ccccc32)cc1OC | inactive | –
Cc1ccc(C)c(CNC(=O)c2cc3ccccn3n2)c1 | – | inactive: -2.96%
O=C(O)c1ccc(-c2cc3cccnc3c(-c3ccc4nonc4c3)n2)cc1 | – | inactive: 7.04%
COc1ccc(NC(=O)c2cnc(N3CCCCC3)c3ccccc23)cc1Cl | inactive | –
CCC(C)NC(=O)c1sc2nc(C)c(C(=O)Nc3ccc(C)cc3C)c(-c3ccccc3Cl)c2c1N (stereo unspecified) | – | inactive: -1.19%
COc1ccccc1CNc1nccn(-c2ccccc2)c1=O | – | inactive: -1.06%
Cc1ccc(-n2c(=O)c3c4c(sc3n(CC(=O)Nc3ccccc3C)c2=O)CCCCC4)cc1C | inactive | –
CCCCC1CCC(C(=O)N2CC(=O)Nc3ccc(Cl)cc3C2c2ccc(F)cc2)CC1 (stereo unspecified) | inactive | –
Cc1ccc(CNC(=O)Cn2c(=O)n(Cc3ccc(F)cc3)c(=O)c3sc4ccccc4c32)cc1 | inactive | –
CCOC(=O)c1cccc2c1N[C@@H](c1ccc(F)cc1)[C@H]1CC=C[C@@H]21 | – | inactive: 29.7%
Cn1cc(S(=O)(=O)N2CCCCC2)cc1C(=O)Nc1cccc(C#N)c1 | – | inactive: -6.69%
Cc1ccc(CCNC(=O)c2ccc3c(=O)n(-c4ccccc4)c(=O)[nH]c3c2)cc1 | – | inactive: 6.78%
CCOc1ccccc1NC(=O)c1c(NCc2sccc2C)sc2c1CCC(C)C2 (stereo unspecified) | inactive | –
CCC(C)NC(=O)CN1C(=O)COc2ccc(S(=O)(=O)N3CCOCC3)cc21 (stereo unspecified) | – | inactive: -0.615%
COc1cccc(N2CC(NC(=O)/C=C\c3ccc(OC)c(OC)c3)CC2=O)c1 (stereo unspecified) | – | inactive: -6.76%
Cc1cc(-c2ccc(S(=O)(=O)Nc3ccc(Cl)cc3C)cc2)on1 | inactive | –
CCCN(C(=O)Cn1ncc2c([nH]c3ccc(C)cc32)c1=O)c1ccccc1C | – | inactive: 1.59%
O=C(Nc1ccc(Cl)cc1)N1CCC(c2ccccc2)C1 (stereo unspecified) | – | inactive: -2.04%

Structure (SMILES) | outcome | activity change, negative = inhibition
COc1ccc(NC(=O)CCS(=O)(=O)c2nc(-c3ccc4c(c3)OCO4)cc(C(F)(F)F)n2)c(OC)c1 | – | inactive: 2.35%
COc1ccc(CCNC(=O)c2cc(S(=O)(=O)N3CCCC(C)C3)cn2C)cc1OC (stereo unspecified) | – | inactive: 63.2%
O=C(O)c1ccc2c(c1)N(Cc1ccc(F)cc1Cl)C(=O)c1ccccc1S2 | – | inactive: -29.3%
CC(CNC(=O)CCCn1c(=O)c2cccn2c2ccccc21)c1ccccc1 (stereo unspecified) | inactive | –
CCN(C(=O)c1cnc(N2CCOCC2)c2ccccc12)c1cc(C)ccc1C | – | inactive: -9%
Cc1cc(NC(=O)C(C)(C)Oc2ccc(Cl)cc2)cc(-c2nc3ncccc3o2)c1O | – | inactive: 5.05%
COc1cccc(CNc2nc3c(-c4cccc(C)c4)nnn3c3ccccc23)c1 | – | inactive: -3.03%
CCOc1ccc(-c2nnc(SCC(=O)NCCc3ccccc3)nc2-c2ccc(OCC)cc2)cc1 | inactive | –
O=C(OCc1cc(=O)n2nc(-c3cccs3)sc2n1)c1ccccc1Br | – | inactive: -7.96%
CC(=O)Nc1ccc(NC(=O)CCC(=O)c2ccc(C)cc2)cc1 | – | inactive: 3.18%
Nc1nc(=O)n([C@H]2CSC(CO)O2)cc1F (stereo partly specified) | – | inactive: 3.72%
CCOc1ccccc1NC(=O)c1ccc2c(Cl)c3c(nc2c1)CCCC3 | inactive | –
CC(C)Nc1ccc(-c2nc(-c3ccccn3)no2)cc1[N+](=O)[O-] | – | inactive: -1.22%
Cc1cc(Cl)ccc1OCC(=O)N(Cc1ccc(N(C)C)cc1)CC1CCCO1 (stereo unspecified) | – | inactive: -7.09%
COc1ccc(C)cc1NC(=O)CCNS(=O)(=O)c1cccc2nonc12 | inactive | –
CCc1ccc(NC(=O)c2sc3nc(C)c(Cl)c(C)c3c2NC(=O)c2ccccc2)cc1 | – | inactive: -6.84%
Cc1nn(-c2ccccc2)c2nc(C3CC3)cc(C(=O)NCc3ccccc3Cl)c12 | – | inactive: 7.07%
O=C(C1CC1)N1CCN(c2nc3c(F)cc(F)cc3s2)CC1 | – | inactive: -9.02%
CCN(CC)c1nc(-c2ccccc2Cl)c2cc(Br)ccc2n1 | – | inactive: -4.17%
CNc1oc(-c2ccc(COc3ccc(C)cc3)o2)nc1C#N | – | inactive: 7.35%
COc1ccc(OCc2nc3c4c(-c5ccc(OC)cc5)c(-c5ccc(OC)cc5)oc4ncn3n2)cc1 | inactive | –

Structure (SMILES) | outcome | activity change, negative = inhibition
CCOc1ccccc1NC(=O)c1cnc(N2CCOCC2)c2ccccc12 | – | inactive: -7.92%
COC(=O)c1cc(NC(=O)c2ccc3c(c2)N(Cc2cccc(Cl)c2)C(=O)c2ccccc2S3=O)cc(C(=O)OC)c1 (stereo unspecified) | – | inactive: -8.41%
CCCCCN1C(C(=O)c2ccccc2)=C(NC(C)=O)c2ccccc2S1(=O)=O | – | inactive: -11%
O=C(CSc1ncc2c(n1)-c1cc(Cl)ccc1N(Cc1ccccc1F)S2(=O)=O)Nc1cccc(C(F)(F)F)c1 | inactive | –
CC(=O)c1cccc(NC(=O)c2c(C)nn(-c3ccc(F)cc3)c2-n2cccc2)c1 | inactive | –
Cc1cc(C)cc(C(=O)Nc2nnc3n2CCS3)c1 | – | inactive: -14.5%
CCOC(=O)c1ccc(NC(=O)CSc2nccn2Cc2ccc(OC)cc2)cc1 | – | inactive: 2.76%
Cc1cc2ccccc2n2c(SCC(=O)Nc3cccc(C(F)(F)F)c3)nnc12 | inactive | –
CCCn1c2ccccc2c2cnn(CC(=O)Nc3ccc(C)cc3Br)c(=O)c21 | – | inactive: -1.74%
Cc1cccc(S(=O)Cc2ccc(C(=O)NC3CCCCCC3)o2)c1 (stereo unspecified) | inactive | –
CCOc1ccccc1C(=O)Nc1cc(-c2ccc(C)cc2)no1 | – | inactive: 0.713%
O=S(=O)(c1ccc(-c2cnc(C3CC3)o2)cc1)N1CCN(c2cccc(Cl)c2)CC1 | inactive | –
Cc1c(-c2ccccc2)n(-c2ccccc2O)c2nc3c(c(=O)n(C)c(=O)n3C)n12 | inactive | –
Cc1ccc(C(=O)Nc2ccc(C(=O)OCc3cc(=O)n4c5c(sc4n3)CCCC5)cc2)cc1 | – | inactive: 3.12%
COc1ccccc1Nc1ncc(C(=O)Nc2ccc(OC)c(OC)c2)c2ccccc12 | – | inactive: 18.5%
CCc1cccc(C)c1NC(=O)C1=C(C)C(=O)OC12CCC(C)CC2 (stereo unspecified) | – | inactive: 8.36%
CCCOc1ccc(C2=NC(c3ccc(F)cc3)=Nc3ccc(OC)cc3N2)cc1 | – | inactive: 1.02%
Cc1ccc2c(c1)c(=O)c(S(=O)(=O)c1ccc(C)c(C)c1)cn2CC(=O)Nc1ccccc1 | inactive | –
O=C(c1ccc2c(c1)N(Cc1ccccc1)C(=O)c1ccccc1S2=O)N1CCC(Cc2ccccc2)CC1 (stereo unspecified) | inactive | –
